Assay results published in the supplement of paper PMC10369915.
The other results are listed elsewhere or left out. Cut-off read from the data, not from the text of the source: active = 3.2 or more and inactive = the rest. The signal is at background level for most entries.

How the values were obtained:
Experiment in all cases: enrichment score (SH2-bound / input frequency) (ratio); bacterial display of known human phosphotyrosine sites (pTyr-Var adds point mutants) read by sequencing; higher = stronger binding; tyrosines were phosphorylated by kinases first
Details in all cases: peptide library: pTyr-Var
[1] = molecular target: SHP2 C-SH2 domain E139D
[2] = molecular target: SHP2 C-SH2 domain wild-type
[3] = molecular target: SHP2 N-SH2 domain L43F
[4] = molecular target: SHP2 N-SH2 domain T42A
[5] = molecular target: SHP2 N-SH2 domain T52S
[6] = molecular target: SHP2 N-SH2 domain wild-type
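Note: displayed peptides selected on beads carrying the immobilized SH2 domain, with library peptides lacking any tyrosine serving as negative controls.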

## YTGSTYRVGDT [FN1_Y106_N104S]
[1]
  enrichment score: inactive: 0.542
[2]
  enrichment score: inactive: 0.611
[3]
  enrichment score: inactive: 0.676
[4]
  enrichment score: inactive: 0.568
[5]
  enrichment score: inactive: 0.522
[6]
  enrichment score: inactive: 0.697

## QPGTDYKIYLY [FN1_Y1970]
[1]
  enrichment score: inactive: 0.817
[2]
  enrichment score: inactive: 0.863
[3]
  enrichment score: inactive: 0.803
[4]
  enrichment score: inactive: 0.843
[5]
  enrichment score: inactive: 0.59
[6]
  enrichment score: inactive: 0.974

## QPGTDYKIYRY [FN1_Y1970_L1974R]
[1]
  enrichment score: inactive: 0.937
[2]
  enrichment score: inactive: 0.675
[3]
  enrichment score: inactive: 0.66
[4]
  enrichment score: inactive: 0.613
[5]
  enrichment score: inactive: 0.788
[6]
  enrichment score: inactive: 0.939

## QPGTDYKIFLF [FN1_Y1970_YF]
[1]
  enrichment score: inactive: 0.695
[2]
  enrichment score: inactive: 0.79
[3]
  enrichment score: inactive: 0.615
[4]
  enrichment score: inactive: 0.837
[5]
  enrichment score: inactive: 0.598
[6]
  enrichment score: inactive: 0.967

## FKIFRYTLNDN [FN1_Y1975_L1974R_YF]
[1]
  enrichment score: inactive: 1.04
[2]
  enrichment score: inactive: 0.844
[3]
  enrichment score: inactive: 1.05
[4]
  enrichment score: inactive: 1.07
[5]
  enrichment score: inactive: 0.935
[6]
  enrichment score: inactive: 0.943

## HPWPRYTTRAP [FNDC1_Y1281_Q1280R]
[1]
  enrichment score: inactive: 0.24
[2]
  enrichment score: inactive: 0.296
[3]
  enrichment score: inactive: 0.306
[4]
  enrichment score: inactive: 0.428
[5]
  enrichment score: inactive: 0.306
[6]
  enrichment score: inactive: 0.327

## EIIPFYGMSSY [FNDC3B_Y175_T179S]
[1]
  enrichment score: inactive: 1.13
[2]
  enrichment score: inactive: 1
[3]
  enrichment score: inactive: 1.07
[4]
  enrichment score: inactive: 1
[5]
  enrichment score: inactive: 1.18
[6]
  enrichment score: inactive: 1.08

## EIIPFYGMSSF [FNDC3B_Y175_T179S_YF]
[1]
  enrichment score: inactive: 0.819
[2]
  enrichment score: inactive: 1.05
[3]
  enrichment score: inactive: 0.844
[4]
  enrichment score: inactive: 0.933
[5]
  enrichment score: inactive: 1.03
[6]
  enrichment score: inactive: 1.02

## FGMSTYITRED [FNDC3B_Y180_YF]
[1]
  enrichment score: inactive: 1.26
[2]
  enrichment score: inactive: 1.29
[3]
  enrichment score: inactive: 1.08
[4]
  enrichment score: inactive: 1.22
[5]
  enrichment score: inactive: 1.25
[6]
  enrichment score: inactive: 1.16

## LDPDSYNMFEN [FOXC1_Y159]
[1]
  enrichment score: inactive: 0.341
[2]
  enrichment score: inactive: 0.366
[3]
  enrichment score: inactive: 0.451
[4]
  enrichment score: inactive: 0.421
[5]
  enrichment score: inactive: 0.337
[6]
  enrichment score: inactive: 0.389

## LDPDSYNVFEN [FOXC1_Y159_M161V]
[1]
  enrichment score: inactive: 0.706
[2]
  enrichment score: inactive: 0.804
[3]
  enrichment score: inactive: 0.883
[4]
  enrichment score: inactive: 0.599
[5]
  enrichment score: inactive: 0.768
[6]
  enrichment score: inactive: 0.892

## KRFAFYRDSPR [FOXE3_Y108_E103K]
[1]
  enrichment score: inactive: 0.725
[2]
  enrichment score: inactive: 0.707
[3]
  enrichment score: inactive: 0.765
[4]
  enrichment score: inactive: 0.696
[5]
  enrichment score: inactive: 0.835
[6]
  enrichment score: inactive: 0.762

## KPPFSYNALIM [FOXG1_Y186]
[1]
  enrichment score: inactive: 0.569
[2]
  enrichment score: inactive: 0.565
[3]
  enrichment score: inactive: 0.609
[4]
  enrichment score: inactive: 0.48
[5]
  enrichment score: inactive: 0.496
[6]
  enrichment score: inactive: 0.634

## KVPRHYDDPGK [FOXG1_Y246]
[1]
  enrichment score: inactive: 1.22
[2]
  enrichment score: inactive: 1.56
[3]
  enrichment score: inactive: 1.12
[4]
  enrichment score: inactive: 1.53
[5]
  enrichment score: inactive: 1.21
[6]
  enrichment score: inactive: 1.75

## LVRPPYSYSAL [FOXI1_Y126]
[1]
  enrichment score: inactive: 1.15
[2]
  enrichment score: inactive: 1.15
[3]
  enrichment score: inactive: 0.87
[4]
  enrichment score: inactive: 2.95
[5]
  enrichment score: inactive: 0.983
[6]
  enrichment score: inactive: 1

## AGADGYGFLAP [FOXL2_Y186_YF]
[1]
  enrichment score: inactive: 0.469
[2]
  enrichment score: inactive: 0.567
[3]
  enrichment score: inactive: 0.526
[4]
  enrichment score: inactive: 0.526
[5]
  enrichment score: inactive: 0.459
[6]
  enrichment score: inactive: 0.935

## PSPMPYAFCQM [FOXL2_Y215_S217F]
[1]
  enrichment score: inactive: 0.684
[2]
  enrichment score: inactive: 0.994
[3]
  enrichment score: inactive: 0.869
[4]
  enrichment score: inactive: 0.766
[5]
  enrichment score: inactive: 0.577
[6]
  enrichment score: inactive: 1.12

## PSPMPCASCQM [FOXL2_Y215_Y215C]
[1]
  enrichment score: inactive: 0.957
[2]
  enrichment score: inactive: 0.897
[3]
  enrichment score: inactive: 0.768
[4]
  enrichment score: inactive: 0.911
[5]
  enrichment score: inactive: 1.02
[6]
  enrichment score: inactive: 0.796

## TLSGIYQYIIA [FOXL2_Y81]
[1]
  enrichment score: active: 3.5
[2]
  enrichment score: active: 3.33
[3]
  enrichment score: active: 3.3
[4]
  enrichment score: active: 3.98
[5]
  enrichment score: active: 3.63
[6]
  enrichment score: inactive: 3
